From paper PMC7819943, “Rice protein-binding microarrays: a tool to detect cis-acting elements near promoter regions in rice” come the findings set out here.

Some of the results follow.

This assay has as its target T1, OsWOX13 (Oryza sativa, UniProt Q5QMM3 1-267).
T1 sequence: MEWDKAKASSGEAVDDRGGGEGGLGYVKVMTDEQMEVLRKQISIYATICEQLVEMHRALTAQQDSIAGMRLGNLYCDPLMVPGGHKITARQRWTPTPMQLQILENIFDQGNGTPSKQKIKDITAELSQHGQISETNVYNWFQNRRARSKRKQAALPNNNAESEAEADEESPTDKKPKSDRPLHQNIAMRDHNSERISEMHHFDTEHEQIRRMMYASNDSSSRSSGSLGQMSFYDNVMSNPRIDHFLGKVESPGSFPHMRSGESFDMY
The experiment in a line: protein-binding microarray (RPBM); PBS, 2% BSA, 51.3 ng/ul salmon testes DNA, 50 uM zinc acetate, 200 nM TF, 25 C, 1 h; high values mean tight binding. The note with it: protein: recombinant; tags: N-terminal polyhistidine and DsRed monomer fusion (pET32a); label: CyDye5-dUTP incorporated in the synthesized complementary strand; 3' TTTTT single-stranded linker to array surface; dsDNA, one strand shown. A digest of the protocol: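 Binding signal here means per-feature fluorescence intensity in arbitrary units. The values were read on an Axon 4000B scanner after a custom Agilent array, double-stranded by primer extension with Cy5-dUTP, was incubated with 200 nM protein at 25 °C for 1 h in PBS with 2% BSA, salmon testes DNA and 50 µM zinc acetate, then washed. The proteins were transcription factors with an N-terminal polyhistidine tag and DsRed, expressed in E. coli BL21-CodonPlus and purified on Ni–NTA.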
For “CGCTAATTCCCAGTCAGTCACTGTCAAAATGTTTGTGGTACGGAGTCACCTAGTGCAG”, the binding signal was 39600 fluorescence intensity (a.u.).

Consider “TTTATTTGATTTTCTTCTTGTTATTTACATGTTCACAATGCGGAGTCACCTAGTGCAG”, for which the binding signal is 13400 fluorescence intensity (a.u.).

For “TGCTGGAAGCCTAATTATTAATGCTGATGAATCAAGACGCCGGAGTCACCTAGTGCAG”, the binding signal was 4020 fluorescence intensity (a.u.).

In the case of “TCGTAGTTATGTCCAATCTAATTATAAATTATTAGAAATTCGGAGTCACCTAGTGCAG”, the binding signal is 7860 fluorescence intensity (a.u.).

For the sequence “TTCCTTCAATCATAAATATTTGATATTTATGACAAGATTTCGGAGTCACCTAGTGCAG”, the binding signal is 18700 fluorescence intensity (a.u.).

On to “AGCCTATACTGTTGCCTAATTGGCAATTGTCAAGTCAACCCGGAGTCACCTAGTGCAG”, for which the binding signal is 23000 fluorescence intensity (a.u.).

As to “CAAGTATAGTCACAGTGATTGATTAATTAGAAACCTGATCCGGAGTCACCTAGTGCAG”, the binding signal was 51800 fluorescence intensity (a.u.).

Regarding “CCAGCTGATCAAGAGCTCTTAATTAGCTAGCTAGTGATTACGGAGTCACCTAGTGCAG”, the binding signal is 7680 fluorescence intensity (a.u.).

“ACATTGATGGACTGTAGGACTTGTGTAGCGCAAGATGTGTCGGAGTCACCTAGTGCAG”: the binding signal was 28800 fluorescence intensity (a.u.).

On to “AATAAATAACATCTTCAATTTATACAATGGTAAGTAAGTTCGGAGTCACCTAGTGCAG”, for which the binding signal is 7430 fluorescence intensity (a.u.).

As for “CCACACAAACTGATAGTTTGTTGTCGTTTACTAGACAACCCGGAGTCACCTAGTGCAG”, the binding signal was 6050 fluorescence intensity (a.u.).

In the case of “TTTGATGGCTAAACTGATGGAGATACATGATAGCATGTAGCGGAGTCACCTAGTGCAG”, the binding signal was 24000 fluorescence intensity (a.u.).

Regarding “CTCAAAATAAATTGGTGTGGTGATGAAGCCATGGGTGTATCGGAGTCACCTAGTGCAG”, the binding signal was 23100 fluorescence intensity (a.u.).

In the case of “TATAATGACATATATAAGATTGGTTTAAGGTGTTATCAACCGGAGTCACCTAGTGCAG”, the binding signal was 19400 fluorescence intensity (a.u.).

Consider “ATATTGATCATGCGGTTAAGTAGATTTTACATTTATATGCCGGAGTCACCTAGTGCAG”, for which the binding signal was 3420 fluorescence intensity (a.u.).

“ACTCAAATTGGTATACTCCATATTTTGTGCTGGAGCTAGGCGGAGTCACCTAGTGCAG”: the binding signal is 17900 fluorescence intensity (a.u.).

With “AATAGATGAAGAATAAATATGATTGGTAGAGAAGAGAGATCGGAGTCACCTAGTGCAG”, the binding signal was 5860 fluorescence intensity (a.u.).

Turning to “AGAGCTAAATTGCACCGGTTTTAATAGTTAGAGGGTTATGCGGAGTCACCTAGTGCAG”, the binding signal is 4540 fluorescence intensity (a.u.).

As for “AAGCATCAATTCGTTGCCTGATTAGTACAACACTGTTGTGCGGAGTCACCTAGTGCAG”, the binding signal is 5420 fluorescence intensity (a.u.).

On to “TAATCATTGAATGGTTGAATTACTATTCTGTGGATGAGTCCGGAGTCACCTAGTGCAG”, for which the binding signal was 4240 fluorescence intensity (a.u.).

Consider “TTCTGAATTGATCTAATTATGGCATAAGTGCGAGTTATTGCGGAGTCACCTAGTGCAG”, for which the binding signal is 26900 fluorescence intensity (a.u.).

Take “CCCAGATTGGAAATCACATGAAAACAACTATGACTTTCCTCGGAGTCACCTAGTGCAG”: the binding signal is 40900 fluorescence intensity (a.u.).

Take “CGTGAATGAATATCTATCTGTATGGTCTACTCCCTACGTCCGGAGTCACCTAGTGCAG”: the binding signal is 5020 fluorescence intensity (a.u.).

With “TTGCTGATTTAGAATCATGTGTATGAACTTCCGTATGCTCCGGAGTCACCTAGTGCAG”, the binding signal was 16500 fluorescence intensity (a.u.).

Regarding “CGGTCAATCATCTTCACCAATTTGGGCGTTCACGCGGTTGCGGAGTCACCTAGTGCAG”, the binding signal was 30800 fluorescence intensity (a.u.).

With “AATTAATAATTGCAATAGTTAGGTTATGAAGACTTCAGAGCGGAGTCACCTAGTGCAG”, the binding signal is 15300 fluorescence intensity (a.u.).

In the case of “GAGGCGAGTGGGAGGGTGGGAGGGAGGGATGAAAGAGATGCGGAGTCACCTAGTGCAG”, the binding signal was 4480 fluorescence intensity (a.u.).

“TTTTAATTACTGATCTTCTTACAATTGCTTTTATGCTGTCCGGAGTCACCTAGTGCAG”: the binding signal was 19700 fluorescence intensity (a.u.).

For the sequence “ATTAATTTGCTTACCGTCAGTGTCTCGACTCTTGACTACCCGGAGTCACCTAGTGCAG”, the binding signal is 28000 fluorescence intensity (a.u.).

Take “TTCAGGAGTTCTGGTAATTGAGAAAACGAGACAGCATCATCGGAGTCACCTAGTGCAG”: the binding signal was 4910 fluorescence intensity (a.u.).

Regarding “GAATGAATTGATTTGTTGTGTAACTAACATAGTGTGAGGTCGGAGTCACCTAGTGCAG”, the binding signal is 38100 fluorescence intensity (a.u.).

For “TGCTTTATTATTTGATTGATTGATCACTTGTTGGATGGGACGGAGTCACCTAGTGCAG”, the binding signal was 64200 fluorescence intensity (a.u.).

Take “TGGTTCTAAATTGGCCTCCAACCAAATACAACTCTACTCTCGGAGTCACCTAGTGCAG”: the binding signal is 3840 fluorescence intensity (a.u.).

With “GGCTAATTCACATTAGCTCAAAATTAGCCTACTTGTTTGGCGGAGTCACCTAGTGCAG”, the binding signal is 4200 fluorescence intensity (a.u.).

In the case of “ATAAATTAATCCAGGCGTGATCTCCCGGCGCCCGCACGCGCGGAGTCACCTAGTGCAG”, the binding signal is 7300 fluorescence intensity (a.u.).

As for “CCTAATTGCAGCTCATGATTTTCTAACAAAATATATATCCCGGAGTCACCTAGTGCAG”, the binding signal was 26200 fluorescence intensity (a.u.).

Consider “GGTTAACTTTGATTCACATTCCAACTCATCCATTTTCTAACGGAGTCACCTAGTGCAG”, for which the binding signal was 3390 fluorescence intensity (a.u.).

Consider “ATATTTTCTAATTTTCAATTTTCATTTGCACACACTTCTGCGGAGTCACCTAGTGCAG”, for which the binding signal was 5390 fluorescence intensity (a.u.).

For “ATTAATTAAGTTACTGTGTTACTCCTAGCTACTCCTCCGTCGGAGTCACCTAGTGCAG”, the binding signal was 22600 fluorescence intensity (a.u.).

In the case of “TCGTTTCCGTCAACTTAATTTGAATTCGCTACAGATGCTTCGGAGTCACCTAGTGCAG”, the binding signal is 4650 fluorescence intensity (a.u.).

On to “AACTGATTAGTGATTACACTACACATGAAACTGAGAAAAGCGGAGTCACCTAGTGCAG”, for which the binding signal is 39300 fluorescence intensity (a.u.).

For “GCTAGGAGCATATAATTGGATGTACACAATCCACCCACACCGGAGTCACCTAGTGCAG”, the binding signal was 3760 fluorescence intensity (a.u.).
